# Assay results: the supplement of paper PMC8728848
# The list shows a part of the results.
# B1: GS13846A-bth-444-19-444 (Bacteroides thetaiotaomicron) (protein)
# chain: SCENEFDVSDKADSLISVTVNTLNNQAAYNVGETAQAELWIQRGGLKDASGKVQFVVDPLLLDSLNQEDKTNYELLPENCYEMTNTEFTVDKNELCGYITYHPEKILALSAYNETKYVLPLRLISNDLAINPARNTSFLAFTILEPIVHISNAGVYNINPDLTSTMDIQIGVPFTNKWDILCNLTEDLSLIDEYNQINKVNFTLLPENAYTAPESVTLQEGVSQITASYQLKNNLVPGNYILPIKIGSITASQGGVPNNSLVIDEESNVLFCIVKEGNKINKSGWEVIECSSEHAGNEATYMIDDNESTYWHCKFKNEAGSSVPPFHFIIDMKKEITIAQIDLLNRGDGAANNIKWVEFYASNNNSEWDKIGAGDFNDEGTRATFRYYVKSTKARYLKLIIPEGYGNNCPPAAIRELTVYGLEGNN
# Tests used:
# Experiment in all cases: glycan array binding signal (z-score within array); higher = stronger binding
# Conditions in all cases: glycan notation: IUPAC condensed, linker removed
# [1] = biological target: Man(a1-3)[Man(a1-6)]Man(a1-6)[Man(a1-3)]Man
# Procedure, shortened: (§1)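 Negative Z-scores can be read as non-binding. The Z-score is calculated within each array and then averaged across arrays of one protein sequence at different concentrations or buffers and across linkers. Arrays, 3228 in all, were curated from the Consortium for Functional Glycomics database and kept only where the protein sequence was available.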
# [2] = biological target: Man(a1-3)[Man(a1-6)]Man(a1-6)[Man(a1-3)]Man(b1-4)GlcNAc(b1-4)GlcNAc
# Procedure, shortened: as §1
# [3] = biological target: Man(a1-3)[Man(a1-6)]Man(b1-4)GlcNAc(b1-4)GlcNAc
# Procedure, shortened: as §1
# [4] = biological target: Man(a1-3)[Man(a1-6)]Man(b1-4)GlcNAc(b1-4)[Fuc(a1-6)]GlcNAc
# Procedure, shortened: as §1
# Man(a1-6)Man = biological target: Man(a1-6)Man
# Procedure, shortened: as §1
# Man(b1-4)GlcNAc = biological target: Man(b1-4)GlcNAc
# Procedure, shortened: as §1
# MurNAc(b1-4)GlcNAc = biological target: MurNAc(b1-4)GlcNAc
# Procedure, shortened: as §1
# Neu5Ac(a2-3)Gal = biological target: Neu5Ac(a2-3)Gal
# Procedure, shortened: as §1
# [5] = biological target: Neu5Ac(a2-3)Gal(b1-3)GalNAc
# Procedure, shortened: as §1
# [6] = biological target: Neu5Ac(a2-3)Gal(b1-3)GalNAc(b1-3)Gal(a1-4)Gal(b1-4)Glc
# Procedure, shortened: as §1
# [7] = biological target: Neu5Ac(a2-3)Gal(b1-3)GalNAc(b1-4)[Neu5Ac(a2-3)]Gal(b1-4)Glc
# Procedure, shortened: as §1
# [8] = biological target: Neu5Ac(a2-3)Gal(b1-3)GalNAc(b1-4)[Neu5Ac(a2-8)Neu5Ac(a2-3)]Gal(b1-4)Glc
# Procedure, shortened: as §1
# [9] = biological target: Neu5Ac(a2-3)Gal(b1-3)GalNAc6S
# Procedure, shortened: as §1
# [10] = biological target: Neu5Ac(a2-3)Gal(b1-3)GlcNAc
# Procedure, shortened: as §1
# [11] = biological target: Neu5Ac(a2-3)Gal(b1-3)GlcNAc(b1-2)Man
# Procedure, shortened: as §1
# [12] = biological target: Neu5Ac(a2-3)Gal(b1-3)GlcNAc(b1-2)Man(a1-3)[GlcNAc(b1-4)][Neu5Ac(a2-3)Gal(b1-3)GlcNAc(b1-2)Man(a1-6)]Man(b1-4)GlcNAc(b1-4)GlcNAc
# Procedure, shortened: as §1
# [13] = biological target: Neu5Ac(a2-3)Gal(b1-3)GlcNAc(b1-2)Man(a1-3)[Neu5Ac(a2-3)Gal(b1-3)GlcNAc(b1-2)Man(a1-6)]Man(b1-4)GlcNAc(b1-4)GlcNAc
# Procedure, shortened: as §1
# [14] = biological target: Neu5Ac(a2-3)Gal(b1-3)GlcNAc(b1-3)Gal(b1-3)GlcNAc
# Procedure, shortened: as §1
# [15] = biological target: Neu5Ac(a2-3)Gal(b1-3)GlcNAc(b1-3)Gal(b1-4)GlcNAc
# Procedure, shortened: as §1
# [16] = biological target: Neu5Ac(a2-3)Gal(b1-3)GlcNAc(b1-3)GalNAc
# Procedure, shortened: as §1
# [17] = biological target: Neu5Ac(a2-3)Gal(b1-3)GlcNAc(b1-4)Gal(b1-4)Glc
# Procedure, shortened: as §1
# [18] = biological target: Neu5Ac(a2-3)Gal(b1-3)GlcNAc(b1-6)GalNAc
# Procedure, shortened: as §1
# [19] = biological target: Neu5Ac(a2-3)Gal(b1-3)GlcNAc6S
# Procedure, shortened: as §1
# [20] = biological target: Neu5Ac(a2-3)Gal(b1-3)[Fuc(a1-4)]GlcNAc
# Procedure, shortened: as §1
# [21] = biological target: Neu5Ac(a2-3)Gal(b1-3)[Fuc(a1-4)]GlcNAc(b1-3)Gal(b1-3)[Fuc(a1-4)]GlcNAc
# Procedure, shortened: as §1
# [22] = biological target: Neu5Ac(a2-3)Gal(b1-3)[Fuc(a1-4)]GlcNAc(b1-3)Gal(b1-4)[Fuc(a1-3)]GlcNAc
# Procedure, shortened: as §1
# [23] = biological target: Neu5Ac(a2-3)Gal(b1-3)[GlcNAc(b1-6)]GalNAc
# Procedure, shortened: as §1
# [24] = biological target: Neu5Ac(a2-3)Gal(b1-3)[Neu5Ac(a2-6)]GalNAc
# Procedure, shortened: as §1
# [25] = biological target: Neu5Ac(a2-3)Gal(b1-3)[Neu5Ac(a2-6)]GlcNAc(b1-3)[Fuc(a1-3)[Gal(b1-4)]GlcNAc(b1-6)]Gal(b1-4)Glc
# Procedure, shortened: as §1
# [26] = biological target: Neu5Ac(a2-3)Gal(b1-3)]Neu5Ac(a2-3)Gal(b1-4)]GlcNAc
# Procedure, shortened: as §1
# Neu5Ac(a2-3)Gal(b1-4)Glc = biological target: Neu5Ac(a2-3)Gal(b1-4)Glc
# Procedure, shortened: as §1
# [27] = biological target: Neu5Ac(a2-3)Gal(b1-4)GlcNAc
# Procedure, shortened: as §1
# [28] = biological target: Neu5Ac(a2-3)Gal(b1-4)GlcNAc(b1-2)Man
# Procedure, shortened: as §1
# [29] = biological target: Neu5Ac(a2-3)Gal(b1-4)GlcNAc(b1-2)Man(a1-3)[GlcNAc(b1-4)][Neu5Ac(a2-3)Gal(b1-4)GlcNAc(b1-2)Man(a1-6)]Man(b1-4)GlcNAc(b1-4)GlcNAc
# Procedure, shortened: as §1
# [30] = biological target: Neu5Ac(a2-3)Gal(b1-4)GlcNAc(b1-2)Man(a1-3)[Neu5Ac(a2-3)Gal(b1-4)GlcNAc(b1-2)Man(a1-6)]Man(b1-4)GlcNAc(b1-4)GlcNAc
# Procedure, shortened: as §1
# [31] = biological target: Neu5Ac(a2-3)Gal(b1-4)GlcNAc(b1-2)Man(a1-3)[Neu5Ac(a2-3)Gal(b1-4)GlcNAc(b1-2)Man(a1-6)]Man(b1-4)GlcNAc(b1-4)[Fuc(a1-6)]GlcNAc
# Procedure, shortened: as §1
# [32] = biological target: Neu5Ac(a2-3)Gal(b1-4)GlcNAc(b1-2)Man(a1-3)[Neu5Ac(a2-6)Gal(b1-4)GlcNAc(b1-2)Man(a1-6)]Man(b1-4)GlcNAc(b1-4)GlcNAc
# Procedure, shortened: as §1
# [33] = biological target: Neu5Ac(a2-3)Gal(b1-4)GlcNAc(b1-2)[Neu5Ac(a2-3)Gal(b1-4)GlcNAc(b1-4)]Man(a1-3)[GlcNAc(b1-4)][Neu5Ac(a2-3)Gal(b1-4)GlcNAc(b1-2)[Neu5Ac(a2-3)Gal(b1-4)GlcNAc(b1-6)]Man(a1-6)]Man(b1-4)GlcNAc(b1-4)GlcNAc
# Procedure, shortened: as §1
binder,measurement,setting,value
B1,glycan array binding signal (z-score),[1],0.111
same,glycan array binding signal (z-score),[2],-0.074
same,glycan array binding signal (z-score),[3],-0.437
same,glycan array binding signal (z-score),[4],-0.186
same,glycan array binding signal (z-score),Man(a1-6)Man,-0.348
same,glycan array binding signal (z-score),Man(b1-4)GlcNAc,-0.063
same,glycan array binding signal (z-score),MurNAc(b1-4)GlcNAc,-0.055
same,glycan array binding signal (z-score),Neu5Ac(a2-3)Gal,-0.549
same,glycan array binding signal (z-score),[5],-0.263
same,glycan array binding signal (z-score),[6],-0.249
same,glycan array binding signal (z-score),[7],0.179
same,glycan array binding signal (z-score),[8],-0.083
same,glycan array binding signal (z-score),[9],-0.313
same,glycan array binding signal (z-score),[10],-0.179
same,glycan array binding signal (z-score),[11],-0.327
same,glycan array binding signal (z-score),[12],-0.023
same,glycan array binding signal (z-score),[13],0.024
same,glycan array binding signal (z-score),[14],-0.139
same,glycan array binding signal (z-score),[15],-0.271
same,glycan array binding signal (z-score),[16],-0.452
same,glycan array binding signal (z-score),[17],-0.503
same,glycan array binding signal (z-score),[18],-0.002
same,glycan array binding signal (z-score),[19],-0.135
same,glycan array binding signal (z-score),[20],-0.154
same,glycan array binding signal (z-score),[21],0.023
same,glycan array binding signal (z-score),[22],-0.006
same,glycan array binding signal (z-score),[23],-0.43
same,glycan array binding signal (z-score),[24],-0.37
same,glycan array binding signal (z-score),[25],0.12
same,glycan array binding signal (z-score),[26],-0.307
same,glycan array binding signal (z-score),Neu5Ac(a2-3)Gal(b1-4)Glc,-0.224
same,glycan array binding signal (z-score),[27],-0.177
same,glycan array binding signal (z-score),[28],-0.218
same,glycan array binding signal (z-score),[29],-0.338
same,glycan array binding signal (z-score),[30],-0.122
same,glycan array binding signal (z-score),[31],-0.407
same,glycan array binding signal (z-score),[32],-0.236
same,glycan array binding signal (z-score),[33],-0.35
